The values that follow come from US9447027B2, “Treating long QT syndrome” (The General Hospital Corporation, priority 2010, dated 2016).

For one data set, the system named is tb218 (bkd−/−) fish. As to the kind of experiment: Dose response and time series, suppression of the breakdance phenotype. Format: in vivo, zebrafish. The conditions noted are these: for ED50, suppression of the breakdance phenotype: tb218 fish at 48 hpf treated for 24 hours. The source says:
The wells were then scored for suppression of the breakdance phenotype at indicated times.

In another data set the test system is bkd−/− embryos. As to the kind of experiment: Optical voltage mapping of embryonic hearts, bkd−/−. The following applies: 50 μM at 48 hpf. Format: in vivo, zebrafish.
Data set [1] concerns zebrafish LQT2 breakdance (bkd−/−) embryos. The data set is described as follows: Small molecule suppressor screen, rescue of 2:1 AV block in breakdance embryos. Format: in vivo. The conditions noted are these: 10 ng/μL added at 48 hpf, scored at 72 hpf. The source says: 1200 small-molecule compounds from a commercially available small molecule library were screened for the ability to rescue zebrafish LQT2 breakdance embryos to identify compounds that shorten ventricular action potential durations (APDs). The zebrafish breakdance (bkd) mutant carries an I59S mutation in KCNH2, the LQTS 2 gene, and has an easily observed cardiac phenotype. Moreover, the I59S KCNH2 mutation faithfully recapitulates in the zebrafish embryos many features of human LQTS: ventricular APD prolongation, spontaneous early after depolarizations, and 2:1 atrioventricular conduction (AV) block in early stages of development. Since cell-based chemical screens for trafficking rescue are susceptible to high false positive rates due to the presence of KCNH2 inhibitors in many chemical libraries, and because they focus on a single mechanism of rescue, the hypothesis that the zebrafish LQTS 2 model breakdance could provide a functional phenotypic screen for compounds that shorten myocardial repolarization was tested.
Breakdance homozygotes (bkd^−/−) develop 2:1 atrioventricular conduction block (two atrial beats for each ventricular beat) that is the result of a prolonged refractory period in the ventricle. This phenotype can be scored in vivo, owing to the transparency of the embryo, enabling a straightforward small molecule suppressor screen. Breakdance homozygotes are viable and fertile, with phenotypic penetrance of 92-96%.
Tubingen AB (TuAB) and tb218 (bkd^−/−) fish were maintained using standard methods. For screening, tb218^−/− adults were crossed, and embryos were reared in E3 buffer at 25° C. […] Accordingly, dechorionated embryos were plated three per well in 96-well plates in a final volume of 200 μL. At 48 hpf, library compounds (Prestwick and Chembridge) were added to a final concentration of 10 ng/μL. Zebrafish were visually scored at 72 hpf for presence or absence of a 2:1 AV block. […]

A further data set has as its system I59S zERG. As to the kind of experiment: I59S zERG trafficking in transfected HEK cells (Western blot, immunofluorescence). The following applies: for restoration of the upper protein band of the zERG mutant I59S: Western blot, incubation with known trafficking correctors. In general terms: A western blot detects proteins with antibodies after separation by electrophoresis.

The nature of data set [2]: Rabbit pharmacokinetic study. In kind it is in vivo. The following applies: serum, 10 mg in phosphate buffered saline injected over 30 seconds.
For data set [3], the system named is I59S KCNH2 mutant zebrafish cardiomyocytes. As to the kind of experiment: Whole cell current clamp recordings of isolated zebrafish cardiomyocytes. The following applies: current-clamp mode, perfusion with 10 μM solution.
In a further data set the test system is wildtype fish. As to the kind of experiment: Optical voltage mapping of embryonic hearts, wildtype. Format: in vivo, zebrafish. The following applies: 50 μM at 48 hpf.
The subject of data set [4] is Zebrafish harboring the I59S KCNH2 mutation (breakdance). The following applies: in vivo.
Data set [5] shares this test system. The data set is described as follows: Steroid compound screen, dose response of rescue from 2:1 AV block. The following applies: 0.1, 0.5, 1, 10, 50 and 100 μM for 24 hours.

Where two headings read alike, the source gives them in different places.

The term half-life denotes how long it takes for the measured level to halve.

`COc1ccccc1C(=O)Nc1ccc(C)cc1` [2-MMB, 2-methoxy-N-(4-methylphenyl)benzamide]: the “time series of rescue” value in the data set with tb218 (bkd−/−) fish (scored at indicated times) is listed as “higher rescue at later time points”. Further, in the data set with tb218 (bkd−/−) fish, the “ED50, suppression of the breakdance phenotype” value was about 10 µM. Moreover, in the data set on bkd−/− embryos (recording at 72 hpf), the “ventricular action potential duration” value is 376 ± 66 ms. Besides, in data set [1], the “embryos in the well in which the 2:1 AV block was ameliorated (three embryos per well)” value (“embryos in the well … (three embryos per well)” below) was “all three embryos”. For the same compound, the “surface expression / membrane localization of I59S zERG by immunofluorescence” value in the data set with I59S zERG (HEK cells transfected with I59S zERG, 100 μM, 24 hours) is given as “does not alter surface expression”. The half-life in data set [2] was 15 s. Further, the “effect on the action potential of mutant cardiomyocytes” value in data set [3] is on record as “shortening of the action potential”. In the data set on wildtype fish (wildtype embryos, recording at 72 hpf), this compound had an APD90 of 200 ± 51 ms.
As to `CC(=O)OCC(=O)[C@H]1CC[C@H]2[C@@H]3CCC4=CC(=O)CC[C@]4(C)[C@H]3CC[C@]12C` [deoxycorticosterone acetate], the “rescue from 2:1 AV block, dose response” value in data set [4] is “no activity”.
For the compound `C[C@@H]1C[C@H]2[C@@H]3CCC4=CC(=O)C=C[C@]4(C)[C@@]3(F)[C@@H](O)C[C@]2(C)[C@@]1(O)C(=O)CO` [dexamethasone], in [5], the “rescue from 2:1 AV block, dose response” value is listed as “rescue”.
Consider `CN(CCOc1ccc(NS(C)(=O)=O)cc1)CCc1ccc(NS(C)(=O)=O)cc1` [dofetilide], for which the “restoration of the upper protein band of the zERG mutant I59S” value in the data set on I59S zERG is “partially restored”.
As to `CC(=O)OCC(=O)[C@@]12OC(C)(C)O[C@@H]1C[C@H]1[C@@H]3C[C@H](F)C4=CC(=O)C=C[C@]4(C)[C@@]3(F)[C@@H](O)C[C@@]12C` [fluocinonide], the “embryos in the well … (three embryos per well)” value in data set [1] is listed as “two of three embryos”.
Consider `CC(=O)[C@@]1(O)CC[C@H]2[C@@H]3C[C@H](C)C4=CC(=O)C=C[C@]4(C)[C@@]3(F)[C@@H](O)C[C@@]21C` [fluorometholone], for which the “embryos in the well … (three embryos per well)” value in [1] is “two of three embryos”.
Regarding `CC1(C)O[C@@H]2C[C@H]3[C@@H]4C[C@H](F)C5=CC(=O)CC[C@]5(C)[C@H]4[C@@H](O)C[C@]3(C)[C@]2(C(=O)CO)O1` [flurandrenolide], the “ED50, suppression of the breakdance phenotype” value in the data set with tb218 (bkd−/−) fish is “approximately 2 μM”. The “ventricular action potential duration” value was determined as 338 ± 44 ms in the data set on bkd−/− embryos (recording at 96 hpf) and 227 ± 41 ms in the data set with wildtype fish (wildtype fish, recording at 96 hpf). In addition, in [5], the “rescue from 2:1 AV block, dose response” value is “rescue”.
With `C/C=C(/C)C(=O)O[C@H]1C(C)=C2[C@H]([C@@H]1OC(=O)CCCCCCC)[C@@](C)(OC(C)=O)C[C@H](OC(=O)CCC)[C@@]1(O)[C@H]2OC(=O)[C@@]1(C)O` [thapsigargin], the “restoration of the upper protein band of the zERG mutant I59S” value with I59S zERG is “not”.
